This note sets out measurements from publication doi:10.1101/2025.09.22.677689.

Amino acid sequences for entries named in this document (tags omitted). Residues count along the entry.
UniProt Q9UEE9: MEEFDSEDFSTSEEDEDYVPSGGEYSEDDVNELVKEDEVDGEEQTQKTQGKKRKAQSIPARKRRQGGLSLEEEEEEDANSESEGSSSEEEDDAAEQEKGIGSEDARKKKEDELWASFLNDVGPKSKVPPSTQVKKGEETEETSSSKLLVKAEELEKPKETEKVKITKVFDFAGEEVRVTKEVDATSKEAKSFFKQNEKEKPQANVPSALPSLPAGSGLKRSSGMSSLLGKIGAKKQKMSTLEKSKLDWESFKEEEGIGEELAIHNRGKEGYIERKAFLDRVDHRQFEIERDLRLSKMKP
UniProt Q96GD4: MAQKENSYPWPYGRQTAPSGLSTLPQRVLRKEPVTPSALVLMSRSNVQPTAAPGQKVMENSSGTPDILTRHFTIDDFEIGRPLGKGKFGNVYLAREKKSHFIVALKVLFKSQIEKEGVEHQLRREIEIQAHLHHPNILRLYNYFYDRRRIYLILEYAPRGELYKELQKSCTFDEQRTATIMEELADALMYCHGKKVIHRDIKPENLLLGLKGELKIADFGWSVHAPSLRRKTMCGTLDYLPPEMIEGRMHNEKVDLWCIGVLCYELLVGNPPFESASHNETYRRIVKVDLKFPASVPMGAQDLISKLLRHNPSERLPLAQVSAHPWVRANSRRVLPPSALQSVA
UniProt O43684: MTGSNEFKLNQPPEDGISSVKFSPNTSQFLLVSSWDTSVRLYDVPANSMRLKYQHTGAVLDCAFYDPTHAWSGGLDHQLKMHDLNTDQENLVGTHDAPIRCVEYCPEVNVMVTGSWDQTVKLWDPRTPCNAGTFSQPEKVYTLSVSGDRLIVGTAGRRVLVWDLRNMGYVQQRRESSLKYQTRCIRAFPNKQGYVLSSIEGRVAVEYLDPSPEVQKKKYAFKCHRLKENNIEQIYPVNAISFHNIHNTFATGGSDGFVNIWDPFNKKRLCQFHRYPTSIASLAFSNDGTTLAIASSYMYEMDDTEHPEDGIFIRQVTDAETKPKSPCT
UniProt Q9NQS7: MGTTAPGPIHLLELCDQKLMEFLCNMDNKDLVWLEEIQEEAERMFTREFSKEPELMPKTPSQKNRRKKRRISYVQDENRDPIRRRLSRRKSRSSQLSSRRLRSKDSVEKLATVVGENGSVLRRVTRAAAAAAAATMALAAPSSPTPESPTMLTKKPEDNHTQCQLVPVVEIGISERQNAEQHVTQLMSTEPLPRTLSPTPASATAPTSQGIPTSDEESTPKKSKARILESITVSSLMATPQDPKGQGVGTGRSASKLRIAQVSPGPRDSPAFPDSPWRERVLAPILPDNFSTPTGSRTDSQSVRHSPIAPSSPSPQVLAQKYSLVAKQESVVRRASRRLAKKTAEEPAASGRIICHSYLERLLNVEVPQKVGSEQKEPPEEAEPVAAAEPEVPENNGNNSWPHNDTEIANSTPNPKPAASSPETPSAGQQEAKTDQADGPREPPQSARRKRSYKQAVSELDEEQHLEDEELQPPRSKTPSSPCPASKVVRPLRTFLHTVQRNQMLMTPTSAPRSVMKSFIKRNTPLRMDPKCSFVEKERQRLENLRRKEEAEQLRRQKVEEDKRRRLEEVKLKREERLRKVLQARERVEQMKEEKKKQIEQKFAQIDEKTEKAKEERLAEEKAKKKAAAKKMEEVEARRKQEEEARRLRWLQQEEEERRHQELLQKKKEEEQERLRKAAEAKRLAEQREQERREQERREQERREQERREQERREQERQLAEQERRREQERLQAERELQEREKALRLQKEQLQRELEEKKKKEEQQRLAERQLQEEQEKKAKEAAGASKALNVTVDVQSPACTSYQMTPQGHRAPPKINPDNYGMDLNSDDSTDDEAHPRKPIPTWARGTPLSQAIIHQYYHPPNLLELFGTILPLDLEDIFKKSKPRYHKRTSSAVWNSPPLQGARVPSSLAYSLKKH
UniProt Q9ULW0: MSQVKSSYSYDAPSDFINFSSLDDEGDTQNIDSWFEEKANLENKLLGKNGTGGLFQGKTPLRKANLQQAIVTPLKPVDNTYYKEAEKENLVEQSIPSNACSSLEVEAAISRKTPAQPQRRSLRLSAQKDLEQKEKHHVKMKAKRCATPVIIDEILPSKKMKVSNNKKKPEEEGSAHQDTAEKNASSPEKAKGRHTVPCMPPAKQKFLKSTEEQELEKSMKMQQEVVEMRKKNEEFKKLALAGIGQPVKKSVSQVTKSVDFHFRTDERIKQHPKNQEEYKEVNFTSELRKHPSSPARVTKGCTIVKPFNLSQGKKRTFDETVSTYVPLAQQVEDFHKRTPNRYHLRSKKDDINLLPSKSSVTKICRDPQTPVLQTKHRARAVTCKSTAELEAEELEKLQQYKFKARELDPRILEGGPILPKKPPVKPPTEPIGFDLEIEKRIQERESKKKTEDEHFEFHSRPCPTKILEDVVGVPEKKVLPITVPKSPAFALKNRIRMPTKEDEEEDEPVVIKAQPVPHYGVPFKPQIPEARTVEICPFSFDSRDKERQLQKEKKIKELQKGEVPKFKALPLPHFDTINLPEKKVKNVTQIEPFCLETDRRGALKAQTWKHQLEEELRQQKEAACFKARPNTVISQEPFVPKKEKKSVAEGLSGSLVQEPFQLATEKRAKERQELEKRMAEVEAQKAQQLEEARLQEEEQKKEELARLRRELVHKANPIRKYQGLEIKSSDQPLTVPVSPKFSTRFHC
UniProt Q14974: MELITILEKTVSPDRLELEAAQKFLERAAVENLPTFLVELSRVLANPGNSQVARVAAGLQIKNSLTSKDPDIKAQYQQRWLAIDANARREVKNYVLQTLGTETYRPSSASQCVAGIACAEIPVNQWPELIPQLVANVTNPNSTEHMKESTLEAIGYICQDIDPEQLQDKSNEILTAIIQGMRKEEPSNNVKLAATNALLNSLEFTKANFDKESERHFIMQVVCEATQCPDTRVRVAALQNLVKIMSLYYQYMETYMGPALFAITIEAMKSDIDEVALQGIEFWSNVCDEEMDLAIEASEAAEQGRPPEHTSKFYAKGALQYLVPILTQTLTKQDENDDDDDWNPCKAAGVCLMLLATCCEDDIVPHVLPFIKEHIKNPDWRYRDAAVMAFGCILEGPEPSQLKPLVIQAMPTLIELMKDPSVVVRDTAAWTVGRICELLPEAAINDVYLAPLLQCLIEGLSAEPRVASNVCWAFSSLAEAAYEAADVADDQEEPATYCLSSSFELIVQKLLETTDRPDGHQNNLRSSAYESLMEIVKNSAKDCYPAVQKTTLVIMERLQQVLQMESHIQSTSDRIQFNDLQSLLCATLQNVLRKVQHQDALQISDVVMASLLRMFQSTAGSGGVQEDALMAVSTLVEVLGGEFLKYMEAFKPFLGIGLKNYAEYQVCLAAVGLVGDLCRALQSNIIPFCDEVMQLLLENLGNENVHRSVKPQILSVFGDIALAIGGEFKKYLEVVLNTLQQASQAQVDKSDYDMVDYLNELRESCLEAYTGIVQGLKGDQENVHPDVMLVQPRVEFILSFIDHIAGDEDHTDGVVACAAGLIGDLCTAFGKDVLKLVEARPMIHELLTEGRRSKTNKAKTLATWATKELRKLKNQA
UniProt O88271, residues 1-150: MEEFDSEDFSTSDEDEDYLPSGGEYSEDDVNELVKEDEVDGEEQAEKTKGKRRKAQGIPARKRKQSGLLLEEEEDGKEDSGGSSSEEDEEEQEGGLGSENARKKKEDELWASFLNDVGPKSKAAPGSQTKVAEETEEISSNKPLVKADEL

These are yes or no findings as the source states them, for the method shown. For part of these data: Binding seen in cells or lysates may run through a third protein. Some entries that bind do so weakly or less than the wild type.

First the molecules themselves.
B1: Aurora A (endogenous, mitotic HeLa cells) (enzyme, UniProt O14965 1-403)
chain: MDRSKENCISGPVKATAPVGGPKRVLVTQQFPCQNPLPVNSGQAQRVLCPSNSSQRIPLQAQKLVSSHKPVQNQKQKQLQATSVPHPVSRPLNNTQKSKQPLPSAPENNPEEELASKQKNEESKKRQWALEDFEIGRPLGKGKFGNVYLAREKQSKFILALKVLFKAQLEKAGVEHQLRREVEIQSHLRHPNILRLYGYFHDATRVYLILEYAPLGTVYRELQKLSKFDEQRTATYITELANALSYCHSKRVIHRDIKPENLLLGSAGELKIADFGWSVHAPSSRRTTLCGTLDYLPPEMIEGRMHDEKVDLWSLGVLCYEFLVGKPPFEANTYQETYKRISRVEFTFPDFVTEGARDLISRLLKHNPSQRPMLREVLEHPWITANSSKPSNCQNKESASKQS
B2: phospho Threonine 288 Aurora A (endogenous, mitotic HeLa cells) (enzyme, UniProt O14965 1-403)
chain: B1 chain
modifications: phosphothreonine at 288
B3: MAD1 (endogenous, mitotic HeLa cells) (protein, UniProt Q9Y6D9 1-718)
chain: MEDLGENTMVLSTLRSLNNFISQRVEGGSGLDISTSAPGSLQMQYQQSMQLEERAEQIRSKSHLIQVEREKMQMELSHKRARVELERAASTSARNYEREVDRNQELLTRIRQLQEREAGAEEKMQEQLERNRQCQQNLDAASKRLREKEDSLAQAGETINALKGRISELQWSVMDQEMRVKRLESEKQELQEQLDLQHKKCQEANQKIQELQASQEARADHEQQIKDLEQKLSLQEQDAAIVKNMKSELVRLPRLERELKQLREESAHLREMRETNGLLQEELEGLQRKLGRQEKMQETLVGLELENERLLAKLQSWERLDQTMGLSIRTPEDLSRFVVELQQRELALKDKNSAVTSSARGLEKARQQLQEELRQVSGQLLEERKKRETHEALARRLQKRVLLLTKERDGMRAILGSYDSELTPAEYSPQLTRRMREAEDMVQKVHSHSAEMEAQLSQALEELGGQKQRADMLEMELKMLKSQSSSAEQSFLFSREEADTLRLKVEELEGERSRLEEEKRMLEAQLERRALQGDYDQSRTKVLHMSLNPTSVARQRLREDHSQLQAECERLRGLLRAMERGGTVPADLEAAAASLPSSKEVAELKKQVESAELKNQRLKEVFQTKIQEFRKACYTLTGYQIDITTENQYRLTSLYAEHPGDCLIFKATSPSGSKMQLLETEFSHTVGELIEVHLRRQDSIPAFLSSLTLELFSRQTVA

In one assay the target is CFDP1 (endogenous, mitotic HeLa cells) (human (endogenous in HeLa)) (UniProt Q9UEE9). Nature of the assay: co-IP; anti-CFDP1 antibody (mouse IgG as control), cytosolic and chromatin extracts of mitotic HeLa cells, overnight at 4°C, Dynabeads Protein G, wash with 250 mM NaCl, 0.1% NP40; immunoblot. On the technique in general: A western blot detects proteins with antibodies after separation by electrophoresis.
With “Aurora B kinase (endogenous, mitotic HeLa cells) (from UniProt Q96GD4 1-344) (enzyme)”, the binding entry is recorded as “binds”. “BUB3 (endogenous, mitotic HeLa cells) (from UniProt O43684 1-328)”: the binding result is recorded as “binds”. For the molecule “INCENP (endogenous, mitotic HeLa cells) (from UniProt Q9NQS7 1-918)”, the binding entry is “binds”. Same read-out and setting: with “TPX2 (endogenous, mitotic HeLa cells) (from UniProt Q9ULW0 1-747)” the entry was “binds”.

“importin β (endogenous, mitotic HeLa cells) (from UniProt Q14974 1-876)”: the binding entry is “binds”. On the same count and under the same terms, the result for B1 reads “no binding”; that for B2, “no binding”. The same measure, in the same setting: with B3 the entry was “binds”.

A further assay addresses GST-TPX2 NLS fusion protein (mouse TPX2 amino acids 302-322) (mouse) (UniProt A2APB8). Nature of the assay: pull-down; GST-TPX2 NLS immobilized on magnetic glutathione particles, incubated with CFDP1 proteins in transfer buffer (20 mM Hepes pH 7.4, 110 mM potassium acetate, 2 mM magnesium acetate, 20% glycerol), 1 h at 4°C; immunoblot; both purified.
As to “CFDP1 acidic N-terminal fragment (aa 1-150), HIS tagged (from UniProt O88271 1-150) (domain or fragment)”, the binding entry was “binds weakly”.
